Biological target: T1, HAUSP (herpesvirus-associated ubiquitin-specific protease), full-length (human, UniProt Q93009 1-1102, 35S-labeled when in vitro translated)
T1 construct: Used for untagged full-length HAUSP: in vitro translated 35S-labeled protein in GST pull-downs, and endogenous HAUSP of H1299, H460 and U2OS cells; also called USP7; human USP7
Assay: affinity chromatography of H1299 nuclear extract; silver-stained SDS-PAGE

B1: GST (other)
chain: not shown
notes: also called GST alone; GST column
B1: no binding.
